Source: the supplement of paper PMC12217912
This is one part of the list. The full chains were built here from the parent and the listed change. Values near 0.05 are background.

B1: TEV protease; numbered along this chain (parent)
chain: MGESLFKGPRDYNPISSSICHLTNESDGHTTSLYGIGFGPFIITNKHLFRRNNGTLVVQSLHGVFKVKDTTTLQQHLVDGRDMIIIRMPKDFPPFPQKLKFREPQREERICLVTTNFQTKSMSSMVSDTSCTFPSGDGIFWKHWIQTKDGQCGSPLVSTRDGFIVGIHSASNFTNTNNYFTSVPKNFMELLTNQEAQQWVSGWRLNADSVLWGGHKVFMVKPEEPFQPVKEATQL

Variants of: B1
Experiment: raw area under fraction-flipped curve 0-4 h after induction (AUC4h, not background-subtracted), DNA-recorder readout of cleavage of the substrate (dimensionless); higher = more cleavage of the substrate by the protease variant
Details: temperature: 34 °C; time window: 0-4 h after rhamnose induction
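Note: Bxb1 expression induced with 0.2% (w/v) L-rhamnose at OD600 near 0.5, cultures sampled hourly, flipped fraction per protease–substrate barcode pair counted by paired-end Illumina sequencing.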

| Variant | area with substrate ENCYFQS | area with substrate ENDYFQS | area with substrate ENFYFQS | area with substrate ENGYFQS | area with substrate ENHYFQS | area with substrate ENKYFQS | area with substrate ENMYFQS | area with substrate ENQYFQS | area with substrate ENRYFQS | area with substrate ENSYFQS | area with substrate ENTYFQS | area with substrate ENVYFQS | area with substrate ENWYFQS | area with substrate ENYYFQS | area with substrate ENEYFQS | area with substrate ENIYFQS | area with substrate ENNYFQS | area with substrate ENPYFQS |
| --- | --- | --- | --- | --- | --- | --- | --- | --- | --- | --- | --- | --- | --- | --- | --- | --- | --- | --- |
| MGESLFKGPRDYNPISSSICHLTNESDGHTTSLYGIGFGPFIITNKHLFRRNNGTLVVQSLHGVFKVKDTTTLQQHLVDGRDMIIIRMPKDFPPFPQKLKFREPQREERICLVTTNQQTKSMSSMVSDTSCTFPSGDGIFWKHWIQTKDGQCGSPLVSTRDGFIVGIHSASNFTNTNNYFTSVPKNFMELLTNQEAQQWVSGWRLNADSVLWGGHKVFMVKPEEPFQPVKEATQL [F117Q] | 0.0789 | 0.0495 | 0.072 | 0.0661 | 0.0408 | 0.0594 | 0.0878 | 0.0436 | 0.0599 | 0.04 | 0.0453 | 0.0839 | 0.0445 | 0.0522 |  |  |  |  |
| MGESLFKGPRDYNPISSSICHLTNESDGHTTSLYGIGFGPFIITNKHLFRRNNGTLVVQSLHGVFKVKDTTTLQQHLVDGRDMIIIRMPKDFPPFPQKLKFPEPQREERICLVTTNFQTKSMSSMVSDTSCTFPSGDGIFWKHWIQTKDGQCGSPLVSTRDGFIVGIHSASNFTNTNNYFTSVPKNFMELLTNQEAQQWVSGWRLNADSVLWGGHKVFMVKPEEPFQPVKEATQL [R102P] | 0.0426 | 0.0391 |  |  |  |  |  | 0.0275 | 0.0539 | 0.036 |  | 0.062 | 0.0597 |  | 0.0464 | 0.0454 | 0.0655 |  |
| MGESLFKGPRDYNPISSSICHLTNESDGHTTSLYGIGFGPFIITNKHLFRRNNGTLVVQSLHGVFKVKDTTTLQQHLVDGRDMIIIRMPKDFTPFPQKLKFREPQREERICLVTTNFQTKSMSSMVSDTSCTFPSGDGIFWKHWIQTKDGQCGSPLVSTRDGFIVGIHSASNFTNTNNYFTSVPKNFMELLTNQEAQQWVSGWRLNADSVLWGGHKVFMVKPEEPFQPVKEATQL [P93T] | 0.0614 |  | 0.0379 | 0.062 |  |  |  |  | 0.0512 |  |  |  | 0.0548 |  | 0.0799 |  | 0.0545 | 0.0597 |
| MGESLFKGPRDYNPISSSICHLTNESDGHTTSLYGIGFGPFIITNKHLFRRNNGTLVVQSLHGVFKVKDTTTLQQHLVDGRDMIIIRMPKDFPPFPQKLKFREPQRIERICLVTTNFQTKSMSSMVSDTSCTFPSGDGIFWKHWIQTKDGQCGSPLVSTRDGFIVGIHSASNFTNTNNYFTSVPKNFMELLTNQEAQQWVSGWRLNADSVLWGGHKVFMVKPEEPFQPVKEATQL [E107I] | 0.0506 | 0.0692 |  | 0.0588 | 0.0412 |  |  | 0.0565 | 0.0569 |  | 0.0669 |  | 0.0027 | 0.0667 |  | 0.103 | 0.0649 | 0.0639 |
| MGESLFKGPRDYNPISSSICHLTNESDGHTTSLYGIGFGPFIITNKHLFRRNNGTLVVQSLHGVFKVKDTTTLQQHLVDGRDMIIIRMPKDFPPFPQKLKFREPQREERICLVTTNFQTKSMSSMVSDTSCTAPSGDGIFWKHWIQTKDGQCGSPLVSTRDGFIVGIHSASNFTNTNNYFTSVPKNFMELLTNQEAQQWVSGWRLNADSVLWGGHKVFMVKPEEPFQPVKEATQL [F133A] | 0.06 |  |  | 0.0709 |  | 0.075 |  | 0.0469 | 0.0492 |  | 0.0679 | 0.0524 | 0 | 0.0604 |  |  | 0.0609 |  |
| MGESLFKGPRDYNPISSSICHLTNESDGHTTSLYGIGFGPFIITNKHLFRRNNGTLVVQSLHGVFKVKDTTTLQQHLVDGRDMIIIRMPKDFPPFPQKLKFREPQREERICLVTTNFQTKSMSSMVSDTSCTIPSGDGIFWKHWIQTKDGQCGSPLVSTRDGFIVGIHSASNFTNTNNYFTSVPKNFMELLTNQEAQQWVSGWRLNADSVLWGGHKVFMVKPEEPFQPVKEATQL [F133I] | 0.0586 | 0.0616 |  |  |  | 0.0631 | 0.0788 |  | 0.062 | 0.0479 | 0.0643 | 0.0639 |  |  | 0.0555 |  | 0.0834 |  |
| MGESLFKGPRDYNPISSSICHLTNESDGHTTSLYGIGFGPFIITNKHLFRRNNGTLVVQSLHGVFKVKDTTTLQQHLVDGRDMIIIRMPKDFPPFPQKLKFREPQREERICLVTTNFRTKSMSSMVSDTSCTFPSGDGIFWKHWIQTKDGQCGSPLVSTRDGFIVGIHSASNFTNTNNYFTSVPKNFMELLTNQEAQQWVSGWRLNADSVLWGGHKVFMVKPEEPFQPVKEATQL [Q118R] | 0.0721 |  | 0.0611 | 0.0659 | 0.0683 |  | 0.0872 | 0.0631 | 0.0617 | 0.0531 | 0.0692 | 0.0782 |  | 0.0541 |  | 0.129 | 0.0902 | 0.0588 |
| MGESLFKGPRDYNPISSSICHLTNESDGHTTSLYGIGFGPFIITNKHLFRRNNGTLVVQSLHGVFKVKDTTTLQQHLVDGRDMIIIRMPKDFPPFPQKLKFREPQREERICLVTTNFKTKSMSSMVSDTSCTFPSGDGIFWKHWIQTKDGQCGSPLVSTRDGFIVGIHSASNFTNTNNYFTSVPKNFMELLTNQEAQQWVSGWRLNADSVLWGGHKVFMVKPEEPFQPVKEATQL [Q118K] | 0.084 | 0.0642 |  |  |  | 0.0655 |  | 0.0684 | 0.0503 | 0.0742 |  |  |  |  | 0.0638 | 0.0771 |  | 0.0161 |
| MGESLFKGPRDYNPISSSICHLTNESDGHTTSLYGIGFGPFIITNKHLFRRNNGTLVVQSLHGVFKVKDTTTLQQHLVDGRDMIIIRMPKDFPPFPQKLKFREPQREERICLVITNFQTKSMSSMVSDTSCTFPSGDGIFWKHWIQTKDGQCGSPLVSTRDGFIVGIHSASNFTNTNNYFTSVPKNFMELLTNQEAQQWVSGWRLNADSVLWGGHKVFMVKPEEPFQPVKEATQL [T114I] | 0.0745 |  | 0.0571 |  | 0.0787 | 0.0735 | 0.0732 | 0.06 | 0.0663 | 0.066 | 0.0633 | 0.025 |  |  |  |  |  |  |
| MGESLFKGPRDYNPISSSICHLTNESDGHTTSLYGIGFGPFIITNKHLFRRNNGTLVVQSLHGVFKVKDTTTLQQHLVDGRDMIIIRMPKDFPPDPQKLKFREPQREERICLVTTNFQTKSMSSMVSDTSCTFPSGDGIFWKHWIQTKDGQCGSPLVSTRDGFIVGIHSASNFTNTNNYFTSVPKNFMELLTNQEAQQWVSGWRLNADSVLWGGHKVFMVKPEEPFQPVKEATQL [F95D] | 0.0559 |  | 0.0495 |  |  |  |  | 0.0436 |  | 0.0382 | 0.0274 |  |  | 0.0477 | 0.0373 |  | 0.0453 |  |
